In the supplement of paper PMC12217912:
The other results are listed elsewhere or left out. Sequences were assembled here from the parent chain. Values near 0.05 are background.

B1: TEV protease; numbered along this chain (parent)
chain: MGESLFKGPRDYNPISSSICHLTNESDGHTTSLYGIGFGPFIITNKHLFRRNNGTLVVQSLHGVFKVKDTTTLQQHLVDGRDMIIIRMPKDFPPFPQKLKFREPQREERICLVTTNFQTKSMSSMVSDTSCTFPSGDGIFWKHWIQTKDGQCGSPLVSTRDGFIVGIHSASNFTNTNNYFTSVPKNFMELLTNQEAQQWVSGWRLNADSVLWGGHKVFMVKPEEPFQPVKEATQL

Variants of: B1
Assay: raw area under fraction-flipped curve 0-4 h after induction (AUC4h, not background-subtracted), DNA-recorder readout of cleavage of the substrate (dimensionless); higher = more cleavage of the substrate by the protease variant
Settings: temperature: 34 °C; time window: 0-4 h after rhamnose induction
Experimental: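 In vivo DNA recorder in E. coli TOP10(DE3) ΔrhaA at 34 °C. Each TEVp single-site mutant (parent TEVp 0) is paired with a single-site variant of the 7-mer TEVs (canonical ENLYFQ|S). The substrate sits between flexible linkers in a Bxb1-sfGFP-TEVs-SsrA fusion, so cleavage stabilises Bxb1 and speeds flipping of a recombination array, read by NGS. The value is the raw area under the fraction-flipped curve over 0-4 h after rhamnose induction (AUC4h), with ≥20 reads per time point. It is not background-subtracted; inactive controls average about 0.047.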
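Further: Bxb1 expression induced with 0.2% (w/v) L-rhamnose at OD600 near 0.5, cultures sampled hourly, flipped fraction per protease–substrate barcode pair counted by paired-end Illumina sequencing.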

Row | Variant | area with substrate ENLYFQA | area with substrate ENLYFQC | area with substrate ENLYFQE | area with substrate ENLYFQG | area with substrate ENLYFQH | area with substrate ENLYFQL | area with substrate ENLYFQM | area with substrate ENLYFQN | area with substrate ENLYFQR | area with substrate ENLYFQS | area with substrate ENLYFQV | area with substrate ENLYFQD | area with substrate ENLYFQF | area with substrate ENLYFQI | area with substrate ENLYFQP | area with substrate ENLYFQQ | area with substrate ENLYFQT | area with substrate ENLYFQW | area with substrate ENLYFQY | area with substrate ENLYFQK
1 | MGESLFKGPRDYNPISSSICHLTNESDGHTTSLYGIGFGPFIITNKHLFRRNNGTLVVQSLHGVFKVKDTTTLQQHLVDGRDMIIIRMPKDFPPFPQKLKFREPQREERICLVTTNFQTKSMSSMVSDTSCTFPSGDGIFWKHWIQTKDGQCGSPLVSSRDGFIVGIHSASNFTNTNNYFTSVPKNFMELLTNQEAQQWVSGWRLNADSVLWGGHKVFMVKPEEPFQPVKEATQL [T159S] | 0.127 | 0.115 | 0.0724 | 0.115 | 0.0864 | 0.0668 | 0.0903 | 0.0906 | 0.064 | 0.0989 | 0.0509 | – | – | – | – | – | – | – | – | –
2 | MGESLFKGPRDYNPISSSICHLTNESDGHTTSLYGIGFGPFIITNKHLFRRNNGTLVVQSLHGVFKVKDTTTLQQHLVDGRDMIIIRMPKDFPPFPQKLKFREPQREERICLVTTNFQTKSMSSMVSDTSCTFPSGDGIFWKHWIQTKDGQCGSPLVSTRDGFIVGIHSASNFTNTNNYFTSVPKNFMELLTNQEAQQWVSGWRLNADSVLLGGHKVFMVKPEEPFQPVKEATQL [W212L] | 0.0971 | – | – | – | 0.0811 | 0.069 | – | 0.0957 | 0.0602 | 0.12 | 0.0559 | 0.0752 | 0.109 | 0.053 | 0.0476 | 0.0789 | 0.0682 | 0.0766 | – | –
3 | MGESLFKGPRDYNPISSSICHLTNESDGHTTSLYGIGFGPFIITNKHLFRRNNGTLVVQSLHGVFKVKDTTTLQQHLVDGRDMIIIRMPKDFPPFPQKLKFREPQREERICLVTTNFQTKSMSSMVSDTSCTFPSGDGIFWKHWIQTKDGQCGSPLVSTRDGFIVGIHSASNFTNTNNYFTSVPKNFMELLTNQEAQQWVSGWRLNADSVLWGGHKVFMVKKEEPFQPVKEATQL [P222K] | 0.078 | 0.0993 | – | – | 0.0626 | 0.0515 | 0.064 | 0.0643 | 0.0451 | 0.0957 | – | 0.0716 | 0.0623 | – | – | – | 0.059 | 0.0626 | 0.0529 | –
4 | MGESLFKGPRDYNPISSSICHLTNESDGHTTSLYGIGFGPFIITNKHLFRRNNGTLVVQSLHGVFKVKDTTTLYQHLVDGRDMIIIRMPKDFPPFPQKLKFREPQREERICLVTTNFQTKSMSSMVSDTSCTFPSGDGIFWKHWIQTKDGQCGSPLVSTRDGFIVGIHSASNFTNTNNYFTSVPKNFMELLTNQEAQQWVSGWRLNADSVLWGGHKVFMVKPEEPFQPVKEATQL [Q74Y] | 0.0865 | 0.103 | – | 0.0956 | 0.0739 | 0.0599 | – | – | – | 0.0956 | 0.0558 | – | 0.0661 | 0.0557 | – | – | 0.0678 | 0.0519 | 0.0619 | 0.0558
5 | MGESLFKGPRDYNPISSSICHLTNESDGHTTSLYGIGFGPFIITNKHLFRRNNGTLVVQSLHGVFKVKDTTTLQQHLVDGRDMIIIRMPKDFPPFPQKLKFREPQREERICLVTTNFQTKSMSSMVSDTSCTFPSGDGIFWKHWIQTKDGQCGSPLVSTRDGFIVGIHSASNFTNTNNYFTSVPKNFMELLTNQEAQQWVSGWRLNADSVLWGGHKVFMVKPEEMFQPVKEATQL [P225M] | 0.0997 | 0.102 | – | 0.118 | 0.0645 | 0.0647 | 0.0791 | 0.0788 | 0.0696 | 0.0868 | 0.066 | 0.0781 | – | 0.0595 | 0.0568 | – | 0.0675 | 0.0841 | 0.0375 | 0.0636
6 | MGESLFKGPRDYNPISSSICHLTNESDGHTTSLYGIGFGPFIITNKHLFRRNNGTLVVQSLHGVFKYKDTTTLQQHLVDGRDMIIIRMPKDFPPFPQKLKFREPQREERICLVTTNFQTKSMSSMVSDTSCTFPSGDGIFWKHWIQTKDGQCGSPLVSTRDGFIVGIHSASNFTNTNNYFTSVPKNFMELLTNQEAQQWVSGWRLNADSVLWGGHKVFMVKPEEPFQPVKEATQL [V67Y] | 0.0359 | 0.0833 | – | – | – | 0.0623 | – | – | 0.0582 | 0.0806 | – | 0.0814 | – | – | – | – | 0.0704 | 0.0632 | – | –
7 | MGESLFKGPRDYNPISSSICHLTNESDGHTTSLYGIGFGPFIITNKHLFRRNNGTLVVQSLHGVFKVKDTTTLQQHLVDGRDMIIIRMPKDFPPFPQKLKFREPQREERICLVTTNFQTKSMSSMVSDTSCTFPSGDGIFWKHWIQTKDGQCGSPLVSTRDIFIVGIHSASNFTNTNNYFTSVPKNFMELLTNQEAQQWVSGWRLNADSVLWGGHKVFMVKPEEPFQPVKEATQL [G162I] | 0.072 | – | – | – | – | 0.0441 | – | 0.0514 | 0.0563 | 0.0693 | – | – | – | – | – | – | – | – | – | –
8 | MGESLFKGPRDYNPISSSICHLTNESDGHTTSLYGIGFGPFIITNKHLFRRNNGTLVVQSLHGVFKVKDTTTLQQHLVDGRDMIIIIMPKDFPPFPQKLKFREPQREERICLVTTNFQTKSMSSMVSDTSCTFPSGDGIFWKHWIQTKDGQCGSPLVSTRDGFIVGIHSASNFTNTNNYFTSVPKNFMELLTNQEAQQWVSGWRLNADSVLWGGHKVFMVKPEEPFQPVKEATQL [R87I] | 0.0592 | 0.0805 | – | 0.0767 | – | 0.05 | 0.0765 | 0.0642 | 0.0591 | 0.0844 | 0.0579 | 0.0587 | 0.055 | – | – | – | 0.0621 | – | 0.0634 | 0.057
9 | MGESLFKGPRDYNPISSSICHLTNESDGHTTSLYGIGFGPFIITNKHLFRRNNGTLVVQSLHGVFKVKDTTTLQQHLVDGRPMIIIRMPKDFPPFPQKLKFREPQREERICLVTTNFQTKSMSSMVSDTSCTFPSGDGIFWKHWIQTKDGQCGSPLVSTRDGFIVGIHSASNFTNTNNYFTSVPKNFMELLTNQEAQQWVSGWRLNADSVLWGGHKVFMVKPEEPFQPVKEATQL [D82P] | 0.0236 | 0.023 | 0.0398 | – | – | 0.0532 | 0.0601 | – | 0.0514 | 0.059 | 0.0582 | – | – | 0.0529 | 0.0575 | – | – | – | – | –
10 | MGESLFKGPRDYNPISSSICHLTNESDGHTTSLYGIGFGPFIITNKHLFRRNNGTLVVQSLHGVFKVKDTTTLQQHLVDGRDMIIIRMPKDFPPFPQKLKFREPQVEERICLVTTNFQTKSMSSMVSDTSCTFPSGDGIFWKHWIQTKDGQCGSPLVSTRDGFIVGIHSASNFTNTNNYFTSVPKNFMELLTNQEAQQWVSGWRLNADSVLWGGHKVFMVKPEEPFQPVKEATQL [R106V] | 0.105 | – | – | 0.114 | – | – | – | 0.0783 | – | 0.105 | – | – | – | 0.0641 | 0.0548 | – | – | 0.0662 | – | 0.0715
